Reference: patent EP4480471A1, “SPECIFIC COMPOUNDS FOR TREATING SIGNS OF SKIN AGING AND/OR HAIR AGING” (DSM IP Assets B.V., priority 2023, dated 2024)
The name of at least one read-out is uncertain.

Tested on: human dermal fibroblasts
Assay: Senolytic activity study: SA-beta-galactosidase flow cytometry on a mixed 70% normal / 30% senescent cell population
Format: cell-based
Details: 72 hours, 70% normal and 30% senescent human dermal fibroblasts, normalized to untreated control, n = 4
Method: Normal and senescent cell populations were obtained from normal human dermal fibroblasts. For the normal cell population, the cells were seeded in cell culture medium (Dulbecco's Modified Eagle Medium supplemented with 10% serum and 1% antibiotics) and allowed to adhere and proliferate in a humidified cell incubator maintaining 37°C and 5% CO2. These were then passaged or collected when 90% confluent. For the senescent cell population, the normal fibroblast cells were at this stage shortly exposed to 200 µM H2O2 followed by normal cell culture medium. Several days later, the cells were treated again with H2O2 to obtain a fully senescent population.
Both normal and senescent populations were mixed into a 70% normal and 30% senescent cell population and represented the treatment population. Afterward, the 70% normal and 30% senescent cell population were seeded in cell culture medium and allowed to adhere in the cell incubator. After adherence, the medium was aspirated, and the treatment medium (Dulbecco's Modified Eagle Medium supplemented with 1% serum) containing the respective compounds at various concentrations (see Table 1) was added to the cells. For assay validation purposes, one condition with treatment medium only (without compound as negative control) and one condition with navitoclax (a known senolytic as positive control); both not included in the presented data. The cells were incubated in the cell incubator for at least 72 hours. Afterward, senescence-associated beta-galactosidase was visualized - a well-known senescence marker- in the cells to quantify the senescence levels using flow cytometry.
Data are normalized to the untreated control (30% senescent cells and 70% normal cells) (n = 4).

Which “Senescent cells left from 30%” value (1 µM) does the source give for COc1cc(-c2cc(=O)c3c(O)cc(O)cc3o2)ccc1O [(I'8)] here?
The value was 25%.

And the “Senescent cells left from 30%” value (5 µM)?
Its value is 18%.

And the “Senescent cells left from 30%” value (25 µM)?
Its value is 29%.

How did the “Senescent cells left from 30%” value (5 µM) turn out when O=c1c(O)c(-c2ccc(O)cc2)oc2c(O)c(O)cc(O)c12 [(I'10)] was run?
The value was 22%.

And the “Senescent cells left from 30%” value (25 µM)?
The value was 21%.

COc1c(O[C@@H]2O[C@H](CO)[C@@H](O)[C@H](O)[C@H]2O)cc2oc(-c3ccc(O)c(O)c3)c(O)c(=O)c2c1O [(I'15)] was tested. Which “Senescent cells left from 30%” value (1 µM) did it give?
The value was 22%.

What about the “Senescent cells left from 30%” value (5 µM) of the same compound?
The value was 18%.

What about the “Senescent cells left from 30%” value (25 µM) of the same compound?
Its value is 18%.

What does the source list for CC1OC(Oc2c(-c3cc(O)c(O)c(O)c3)oc3cc(O)cc(O)c3c2=O)C(O)C(O)C1O (centres unmarked) [(I'14)]?
Senescent cells left from 30% (1 µM): 28%; Senescent cells left from 30% (5 µM): 20%; Senescent cells left from 30% (25 µM): 15%

For O=c1cc(-c2ccc(O)c(O)c2)oc2c(O)c(O)ccc12 [(I'1)], which “Senescent cells left from 30%” value (1 µM) is on record?
Its value is 22%.

And the “Senescent cells left from 30%” value (5 µM)?
The value was 18%.

What about the “Senescent cells left from 30%” value (25 µM) of the same compound?
Its value is 13%.

COc1cc(C)c2c(=O)c(-c3ccccc3)coc2c1 [(I'4)] was tested. Which “Senescent cells left from 30%” value (1 µM) did it give?
Its value is 29%.

And the “Senescent cells left from 30%” value (5 µM)?
Its value is 27%.

What about the “Senescent cells left from 30%” value (25 µM) of the same compound?
The value was 22%.

For CC(C)Oc1ccc2c(=O)c(-c3ccccc3)coc2c1 [(I'16)], which “Senescent cells left from 30%” value (1 µM) is on record?
The value was 29%.

What about the “Senescent cells left from 30%” value (5 µM) of the same compound?
Its value is 24%.

What about the “Senescent cells left from 30%” value (25 µM) of the same compound?
The value was 20%.

With COc1c(O)cc2oc(-c3ccc(O)c(O)c3)cc(=O)c2c1O [(I'18)] as the compound, how does the “Senescent cells left from 30%” value (1 µM) read?
Its value is 20%.

And the “Senescent cells left from 30%” value (5 µM)?
The value was 18%.

And the “Senescent cells left from 30%” value (25 µM)?
Its value is 16%.

For COc1ccc(-c2cc(=O)c3c(O)cc(O[C@@H]4O[C@H](CO)[C@@H](O)[C@H](O)[C@H]4O)cc3o2)cc1O [(I'11)], which “Senescent cells left from 30%” value (5 µM) is on record?
The value was 23%.

What about the “Senescent cells left from 30%” value (25 µM) of the same compound?
The value was 16%.

How did the “Senescent cells left from 30%” value (1 µM) turn out when O=C1CC(c2ccccc2)Oc2ccc(O)cc21 (centres unmarked) [(I"5)] was run?
Its value is 30%.

And the “Senescent cells left from 30%” value (5 µM)?
The value was 25%.

And the “Senescent cells left from 30%” value (25 µM)?
The value was 17%.

What does the source list for COc1cc(O)c2c(c1)OC(c1ccc(O)cc1)CC2=O (centres unmarked) [(I"7)]?
Senescent cells left from 30% (1 µM): 26%; Senescent cells left from 30% (5 µM): 27%; Senescent cells left from 30% (25 µM): 18%

What does the source list for COc1ccc(-c2coc3cc(O)cc(O)c3c2=O)cc1 [(I'7)]?
Senescent cells left from 30% (1 µM): 24%; Senescent cells left from 30% (5 µM): 21%; Senescent cells left from 30% (25 µM): 14%

What does the source list for O=c1c(O)c(-c2cc(O)c(O)c(O)c2)oc2cc(O)ccc12 [(I'21)]?
Senescent cells left from 30% (1 µM): 24%; Senescent cells left from 30% (5 µM): 20%; Senescent cells left from 30% (25 µM): 19%

Which “Senescent cells left from 30%” value (1 µM) does the source give for COc1ccc(-c2cc(=O)c3c(O)cc(O)cc3o2)cc1O [(I'27)] here?
The value was 24%.

What about the “Senescent cells left from 30%” value (5 µM) of the same compound?
The value was 23%.

And the “Senescent cells left from 30%” value (25 µM)?
The value was 26%.

How did the “Senescent cells left from 30%” value (1 µM) turn out when COc1ccc(-c2cc(=O)c3c(OC)cc(OC)cc3o2)cc1 [(I'5)] was run?
The value was 25%.

What about the “Senescent cells left from 30%” value (5 µM) of the same compound?
Its value is 23%.

What about the “Senescent cells left from 30%” value (25 µM) of the same compound?
Its value is 27%.

O=C1CC(c2ccc(O)c(O)c2)Oc2cc(O)cc(O)c21 (centres unmarked) [(I"11)] was tested. Which “Senescent cells left from 30%” value (1 µM) did it give?
Its value is 25%.

What about the “Senescent cells left from 30%” value (5 µM) of the same compound?
Its value is 24%.

What does the source list for COc1ccc(-c2cc(=O)c3ccc(O)cc3o2)cc1 [(I'32)]?
Senescent cells left from 30% (1 µM): 26%; Senescent cells left from 30% (5 µM): 25%; Senescent cells left from 30% (25 µM): 24%

O=c1c(O)c(-c2ccccc2O)oc2cc(O)cc(O)c12 [(I'25)] was tested. Which “Senescent cells left from 30%” value (1 µM) did it give?
The value was 27%.

What about the “Senescent cells left from 30%” value (5 µM) of the same compound?
Its value is 26%.

What about the “Senescent cells left from 30%” value (25 µM) of the same compound?
The value was 24%.

Which “Senescent cells left from 30%” value (1 µM) does the source give for COc1ccc(C2CC(=O)c3c(O)cc(O)cc3O2)cc1O (centres unmarked) [(I"4)] here?
Its value is 28%.

And the “Senescent cells left from 30%” value (5 µM)?
Its value is 26%.

And the “Senescent cells left from 30%” value (25 µM)?
The value was 11%.

How did the “Senescent cells left from 30%” value (1 µM) turn out when O=c1cc(-c2ccc(O)cc2)oc2c(-c3c(O)cc(O)c4c(=O)cc(-c5ccc(O)cc5)oc34)c(O)cc(O)c12 [(I'9)] was run?
The value was 24%.

And the “Senescent cells left from 30%” value (5 µM)?
The value was 19%.

What about the “Senescent cells left from 30%” value (25 µM) of the same compound?
The value was 12%.

Which results are given for COc1cc(O)c2c(=O)c(O)c(-c3ccc(O)c(OC)c3)oc2c1 [(I'19)]?
Senescent cells left from 30% (1 µM): 18%; Senescent cells left from 30% (5 µM): 19%; Senescent cells left from 30% (25 µM): 16%

COc1cc(O)c2c(=O)c(O)c(-c3ccc(O)c(O)c3)oc2c1 [(I'20)] was tested. Which “Senescent cells left from 30%” value (1 µM) did it give?
Its value is 21%.

And the “Senescent cells left from 30%” value (5 µM)?
The value was 14%.

And the “Senescent cells left from 30%” value (25 µM)?
Its value is 29%.

Which results are given for COc1cc2oc(-c3ccccc3)cc(=O)c2c(O)c1O [(I'6)]?
Senescent cells left from 30% (1 µM): 22%; Senescent cells left from 30% (5 µM): 18%; Senescent cells left from 30% (25 µM): 18%

With COc1cc2oc(-c3ccccc3)cc(=O)c2c(OC)c1OC [(I'24)] as the compound, how does the “Senescent cells left from 30%” value (5 µM) read?
The value was 27%.

What about the “Senescent cells left from 30%” value (25 µM) of the same compound?
The value was 25%.

COc1cc(-c2cc(=O)c3c(O)c(OC)c(OC)c(OC)c3o2)cc(OC)c1OC [(I'29)] was tested. Which “Senescent cells left from 30%” value (1 µM) did it give?
The value was 25%.

What about the “Senescent cells left from 30%” value (5 µM) of the same compound?
Its value is 25%.

And the “Senescent cells left from 30%” value (25 µM)?
The value was 18%.

For O=c1c(-c2ccc(O)c(O)c2)coc2cc(O)ccc12 [(I'2)], which “Senescent cells left from 30%” value (1 µM) is on record?
Its value is 20%.

And the “Senescent cells left from 30%” value (5 µM)?
The value was 12%.

What about the “Senescent cells left from 30%” value (25 µM) of the same compound?
Its value is 13%.

Which “Senescent cells left from 30%” value (1 µM) does the source give for COc1cc(-c2oc3cc(O)ccc3c(=O)c2O)cc(OC)c1OC [(I'3)] here?
Its value is 28%.

And the “Senescent cells left from 30%” value (5 µM)?
The value was 21%.

What about the “Senescent cells left from 30%” value (25 µM) of the same compound?
Its value is 17%.

What does the source list for O=c1cc(-c2cc(O)c(O)c(O)c2)oc2cc(O)cc(O)c12 [(I'22)]?
Senescent cells left from 30% (1 µM): 21%; Senescent cells left from 30% (5 µM): 18%; Senescent cells left from 30% (25 µM): 14%

For O=c1c(O)c(-c2ccc(O)cc2)oc2cc(O)cc(O)c12 [(I'17)], which “Senescent cells left from 30%” value (1 µM) is on record?
The value was 26%.

And the “Senescent cells left from 30%” value (5 µM)?
Its value is 22%.

And the “Senescent cells left from 30%” value (25 µM)?
Its value is 13%.
